According to the supplement of paper PMC4967469:
The IC50 comes from the fitted curve, where viability falls to half of the control; fits outside the tested doses are given as limits. The AUC spans the tested range (256-fold, ending at the top dose) of the same fit; values near 1 show little effect. For some assays here: A top dose marked as inferred was derived from the fitted curves, not read from the paper. For some assays here: Drugs with an entry number were screened twice under separate entries, and the two screens often disagree.

How the values were obtained:
Experiment in all cases: Viability of human cancer cell lines after 72 h of drug (GDSC screen)
[1] = compound: CCNC(=O)c1noc(-c2cc(C(C)C)c(O)cc2O)c1-c1ccc(CN2CCOCC2)cc1 [AUY922]; conditions: top dose 0.256 µM; top dose inferred
Procedure: (§1)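 Human cancer cell lines in 384-well plates, medium with 10% serum, drug for 72 h over a 256-fold dose range (nine 2-fold or five 4-fold steps up to the top dose). Adherent lines were fixed and stained with the nucleic acid dye Syto60, suspension lines read with resazurin; signal relative to control wells, capped at 0 and 100%. One two-parameter sigmoid per drug and line, fitted in a mixed model over all curves with the slope shared within a line.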

[2] = compound: CC(C)c1ccccc1Cc1cc(C(=O)Nc2ccc(S(=O)(=O)c3ccccc3C(C)(C)C)cc2)c(O)c(O)c1O [TW-37]; conditions: top dose 5 µM
Procedure: as §1

[3] = compound: Cc1cn(-c2cc(NC(=O)c3ccc(C)c(Nc4nccc(-c5cccnc5)n4)c3)cc(C(F)(F)F)c2)cn1 [Nilotinib]; conditions: top dose 2 µM
Procedure: as §1

[4] = compound: Nc1ccn([C@@H]2O[C@H](CO)[C@@H](O)C2(F)F)c(=O)n1 [Gemcitabine]; conditions: top dose 1.024 µM
Procedure: as §1

[5] = compound: CC(O)(CS(=O)(=O)c1ccc(F)cc1)C(=O)Nc1ccc(C#N)c(C(F)(F)F)c1 [Bicalutamide]; conditions: top dose inferred
Procedure: as §1

[6] = compound: S=C(NCc1ccc2c(c1)OCO2)N1CCN(c2ncnc3c2oc2ccccc23)CC1 [MP470]; conditions: top dose 20 µM; top dose inferred
Procedure: as §1

[7] = compound: C/C(O)=C(\C#N)C(=O)Nc1cc(Br)ccc1Br [LFM-A13]; conditions: top dose 16 µM; top dose inferred
Procedure: as §1

[8] = compound: O=S(=O)(c1ccccc1)N(CC(F)(F)F)c1ccc(C(O)(C(F)(F)F)C(F)(F)F)cc1 [T0901317]; conditions: top dose 10.24 µM; top dose inferred
Procedure: as §1

[9] = compound: Cc1ccc(Nc2cc(-c3cccc(N4C(=O)c5ccccc5C4=O)c3)ncn2)cc1NS(C)(=O)=O [KIN001-270]; conditions: top dose 20 µM; top dose inferred
Procedure: as §1

[10] = top dose 1.024 µM, screen: GDSC drug entry 150
[11] = top dose 10 µM, screen: GDSC drug entry 1502

Cell Line | AUC [1] | IC50 [1] | AUC [2] | IC50 [2] | AUC [3] | IC50 [3] | AUC [4] | IC50 [4] | AUC [5, 10] | IC50 [5, 10] | AUC [5, 11] | IC50 [5, 11] | AUC [6] | IC50 [6] | AUC [7] | IC50 [7] | AUC [8] | IC50 [8] | AUC [9] | IC50 [9]
H290 (mesothelioma, adherent) | 0.561 | 23.1 nM | 0.466 | 255 nM | 0.989 | > 2000 nM | 0.199 | 9.07 nM | 0.983 | > 1020 nM | 0.987 | > 10000 nM | 0.854 | 13700 nM | 0.962 | > 16000 nM | 0.989 | > 10200 nM |  | 
HCC-78 (lung adenocarcinoma, adherent) | 0.813 | 169 nM |  |  | 0.962 | > 2000 nM | 0.377 | 27.7 nM | 0.983 | > 1020 nM | 0.981 | > 10000 nM | 0.913 | > 20000 nM | 0.977 | > 16000 nM | 0.951 | > 10200 nM | 0.93 | > 20000 nM
HSC-2 (head and neck, adherent) | 0.358 | 6.68 nM |  |  | 0.987 | > 2000 nM | 0.147 | 5.79 nM | 0.989 | > 1020 nM | 0.968 | > 10000 nM | 0.964 | > 20000 nM | 0.981 | > 16000 nM | 0.985 | > 10200 nM | 0.987 | > 20000 nM
HeLa (cervix, adherent) | 0.69 | 53 nM | 0.5 | 313 nM | 0.976 | > 2000 nM | 0.663 | 178 nM |  |  |  |  | 0.71 | 4740 nM | 0.965 | > 16000 nM |  |  | 0.975 | > 20000 nM
IGR-37 (melanoma, adherent) | 0.48 | 14.2 nM | 0.433 | 208 nM | 0.958 | > 2000 nM | 0.172 | 7.37 nM | 0.983 | > 1020 nM | 0.984 | > 10000 nM |  |  | 0.989 | > 16000 nM | 0.988 | > 10200 nM | 0.971 | > 20000 nM
JHU-029 (head and neck, adherent) | 0.403 | 8.16 nM | 0.55 | 442 nM | 0.974 | > 2000 nM | 0.443 | 43.1 nM | 0.98 | > 1020 nM | 0.952 | > 10000 nM |  |  | 0.931 | > 16000 nM |  |  |  | 
KYSE-450 (oesophagus, adherent) | 0.428 | 10.3 nM |  |  | 0.988 | > 2000 nM | 0.299 | 18 nM | 0.988 | > 1020 nM | 0.984 | > 10000 nM | 0.963 | > 20000 nM | 0.976 | > 16000 nM | 0.979 | > 10200 nM | 0.985 | > 20000 nM
LN-405 (glioma, adherent) | 0.894 | > 256 nM |  |  | 0.984 | > 2000 nM | 0.944 | > 1020 nM | 0.983 | > 1020 nM | 0.955 | > 10000 nM | 0.968 | > 20000 nM | 0.974 | > 16000 nM | 0.984 | > 10200 nM | 0.977 | > 20000 nM
LoVo (large intestine, adherent) | 0.559 | 23.2 nM |  |  | 0.97 | > 2000 nM | 0.284 | 15.6 nM | 0.986 | > 1020 nM | 0.982 | > 10000 nM | 0.742 | 6200 nM | 0.969 | > 16000 nM | 0.962 | > 10200 nM | 0.987 | > 20000 nM
MDA-MB-330 (breast, adherent) | 0.608 | 33 nM |  |  | 0.986 | > 2000 nM | 0.977 | > 1020 nM | 0.985 | > 1020 nM | 0.966 | > 10000 nM | 0.942 | > 20000 nM | 0.962 | > 16000 nM | 0.984 | > 10200 nM | 0.976 | > 20000 nM
MDA-MB-415 (breast, adherent) | 0.822 | 221 nM |  |  | 0.983 | > 2000 nM | 0.94 | > 1020 nM | 0.982 | > 1020 nM | 0.942 | > 10000 nM | 0.608 | 2740 nM | 0.927 | > 16000 nM | 0.969 | > 10200 nM | 0.979 | > 20000 nM
OE21 (oesophagus, adherent) |  |  | 0.609 | 696 nM | 0.918 | > 2000 nM | 0.533 | 81.4 nM | 0.977 | > 1020 nM | 0.892 | > 10000 nM | 0.978 | > 20000 nM | 0.942 | > 16000 nM | 0.978 | > 10200 nM | 0.972 | > 20000 nM
PFSK-1 (medulloblastoma, adherent) | 0.771 | 104 nM |  |  | 0.938 | > 2000 nM | 0.826 | 671 nM | 0.985 | > 1020 nM |  |  | 0.905 | > 20000 nM | 0.982 | > 16000 nM | 0.977 | > 10200 nM | 0.959 | > 20000 nM
STS-0421 (soft tissue, adherent) | 0.59 | 29.5 nM | 0.575 | 519 nM | 0.983 | > 2000 nM | 0.813 | 670 nM | 0.979 | > 1020 nM | 0.967 | > 10000 nM |  |  | 0.87 | > 16000 nM |  |  |  | 
SiHa (cervix, adherent) | 0.954 | > 256 nM |  |  | 0.987 | > 2000 nM | 0.987 | > 1020 nM | 0.986 | > 1020 nM | 0.973 | > 10000 nM | 0.902 | > 20000 nM | 0.951 | > 16000 nM | 0.987 | > 10200 nM | 0.986 | > 20000 nM
VMRC-RCW (kidney, adherent) | 0.481 | 14.3 nM |  |  | 0.983 | > 2000 nM | 0.183 | 7.89 nM | 0.989 | > 1020 nM |  |  | 0.964 | > 20000 nM | 0.952 | > 16000 nM | 0.987 | > 10200 nM | 0.983 | > 20000 nM
